Test results: a collection of fitness landscapes (doi:10.1126/science.1257360)
This is one part of the list.

B1: PhoQ; a variant is named by its letters at X, in order, P23837 (parent)
chain: MKKLLRLFFPLSLRVRFLLATAAVVLVLSLAYGMVALIGYSVSFDKTTFRLLRGESNLFYTLAKWENNKLHVELPENIDKQSPTMTLIYDENGQLLWAQRDVPWLMKMIQPDWLKSNGFHEIEADVNDTSLLLSGDHSIQQQLQEVREDDDDAEMTHSVAVNVYPATSRMPKLTIVVVDTIPVELKSSYMVWSWFIYVLSANLLLVIPLLWVAAWWSLRPIEALAKEVRELEEHNRELLNPATTRELTSLVRNLNRLLKSERERYDKYRTTLTDLTHSLKTPLXXLQXXLRSLRSEKMSVSDAEPVMLEQISRISQQIGYYLHRASMRGGTLLSRELHPVAPLLDNLTSALNKVYQRKGVNISLDISPEISFVGEQNDFVEVMGNVLDNACKYCLEFVEISARQTDEHLYIVVEDDGPGIPLSKREVIFDRGQRVDTLRPGQGVGLAVAREITEQYEGKIVAGESMLGGARMEVIFGRQHSAPKDE

Variants of: B1
Test: enrichment ratio after two sorts for PhoP signalling (ratio (wild type AVST 3.29)); higher = more functional
Settings: with PhoP (E. coli)

Variant	enrichment ratio
QGCG	2.75
AELN	12.5
YSCM	12.8
NRMK	≤ 0.25
LART	≤ 0.25
HNCT	≤ 0.25
YHQL	≤ 0.25
TGTP	≤ 0.25
MKAM	≤ 0.25
IQNP	≤ 0.25
RQCS	≤ 0.25
FFTD	≤ 0.25
TPMI	≤ 0.25
QHDY	≤ 0.25
PIWT	≤ 0.25
SMQI	5.8
HTPK	≤ 0.25
IMWM	≤ 0.25
FWMT	≤ 0.25
ICRN	≤ 0.25
NRGS	≤ 0.25
ELDL	≤ 0.25
GFIT	≤ 0.25
FHCF	≤ 0.25
EGTI	≤ 0.25
VQRQ	≤ 0.25

Variant	enrichment ratio
AVLG	8.44
YGDE	≤ 0.25
NYQR	≤ 0.25
IGFF	≤ 0.25
MPSG	≤ 0.25
WEDN	≤ 0.25
WNRI	≤ 0.25
RQKM	≤ 0.25
QHFV	≤ 0.25
NHPH	≤ 0.25
DQFC	≤ 0.25
IINI	≤ 0.25
VTSA	≤ 0.25
LWST	≤ 0.25
VPFY	≤ 0.25
VLYR	≤ 0.25
KGVQ	≤ 0.25
YVPI	≤ 0.25
VMST	≤ 0.25
GYTK	≤ 0.25
IRFI	≤ 0.25
PCRC	≤ 0.25
VQVY	≤ 0.25
HMGH	≤ 0.25
YFQL	≤ 0.25
FAWV	≤ 0.25

Variant	enrichment ratio
HEPG	≤ 0.25
SEYG	2.2
VVRC	≤ 0.25
TMKQ	≤ 0.25
TQHD	9.89
YNWN	≤ 0.25
RAYN	≤ 0.25
SQQN	≤ 0.25
PYNM	≤ 0.25
RNAM	≤ 0.25
YNWA	≤ 0.25
NLCA	≤ 0.25
SGPS	≤ 0.25
LYQL	≤ 0.25
RTEV	≤ 0.25
GDMV	≤ 0.25
ESFK	≤ 0.25
VMFR	≤ 0.25
RITC	≤ 0.25
SSHI	1.12
ATIL	7.02
TDQI	≤ 0.25
MPDW	≤ 0.25
GARF	≤ 0.25
DGMS	≤ 0.25
MKVI	≤ 0.25

Variant	enrichment ratio
SKKT	≤ 0.25
HTQP	≤ 0.25
HHHE	≤ 0.25
IFTW	≤ 0.25
HHAW	≤ 0.25
YLWA	≤ 0.25
LFHW	≤ 0.25
TVMQ	5.08
PDRF	≤ 0.25
EHSW	≤ 0.25
FPVD	≤ 0.25
QYSM	≤ 0.25
WNVQ	≤ 0.25
WCYG	≤ 0.25
SPFA	≤ 0.25
WCSY	≤ 0.25
IAYN	≤ 0.25
TMWR	≤ 0.25
SSIL	12.3
AHLI	4.17
FYIA	≤ 0.25
RCKG	≤ 0.25
YIVR	≤ 0.25
KQVF	≤ 0.25
HWMK	≤ 0.25
VMHA	≤ 0.25

Variant	enrichment ratio
LIVN	≤ 0.25
TGLY	5.96
FNGR	≤ 0.25
DRTE	≤ 0.25
VWYQ	≤ 0.25
FNNL	≤ 0.25
YSFN	≤ 0.25
RRIF	≤ 0.25
FTSF	≤ 0.25
SKIQ	2.46
DDNG	≤ 0.25
DLCI	≤ 0.25
GWTR	≤ 0.25
DSMC	≤ 0.25
YYYE	≤ 0.25
HKEI	≤ 0.25
TNCY	≤ 0.25
GRCD	≤ 0.25
GRWD	≤ 0.25
KSQI	≤ 0.25
EHRA	≤ 0.25
LSAF	≤ 0.25
MWAC	≤ 0.25
SNTP	≤ 0.25
KPCL	≤ 0.25
AKCS	3.9

Variant	enrichment ratio
SHPG	≤ 0.25
YCVV	≤ 0.25
MGRI	≤ 0.25
HVIR	≤ 0.25
WWRH	≤ 0.25
AFMM	≤ 0.25
NLMG	≤ 0.25
LNYT	≤ 0.25
GRSQ	≤ 0.25
SLPG	≤ 0.25
YWQG	≤ 0.25
LKFI	≤ 0.25
TRSQ	≤ 0.25
RMPW	≤ 0.25
HHMG	≤ 0.25
PRKA	≤ 0.25
DAMP	≤ 0.25
WYFS	≤ 0.25
IHSW	≤ 0.25
QGSG	2.59
WGPP	≤ 0.25
RVAP	≤ 0.25
FGDD	≤ 0.25
